Results published in paper PMC10726135.
The other results are listed elsewhere or left out. At the low end of the ranking the order means little. The protein was read in a cell extract, so binding may be indirect.

target: T1, HNF4alpha2 (COS-7 nuclear extract) (UniProt P41235); experiment: protein-binding microarray; conditions: COS-7 nuclear extract on double-stranded Agilent 4x180k PBM; binding buffer, salt, pH and temperature not given; high values mean tight binding; double strand, one strand shown; sequences stand for … in …GCCTAGGGAGATTAGAGTATCGGTCGA
T1 sequence: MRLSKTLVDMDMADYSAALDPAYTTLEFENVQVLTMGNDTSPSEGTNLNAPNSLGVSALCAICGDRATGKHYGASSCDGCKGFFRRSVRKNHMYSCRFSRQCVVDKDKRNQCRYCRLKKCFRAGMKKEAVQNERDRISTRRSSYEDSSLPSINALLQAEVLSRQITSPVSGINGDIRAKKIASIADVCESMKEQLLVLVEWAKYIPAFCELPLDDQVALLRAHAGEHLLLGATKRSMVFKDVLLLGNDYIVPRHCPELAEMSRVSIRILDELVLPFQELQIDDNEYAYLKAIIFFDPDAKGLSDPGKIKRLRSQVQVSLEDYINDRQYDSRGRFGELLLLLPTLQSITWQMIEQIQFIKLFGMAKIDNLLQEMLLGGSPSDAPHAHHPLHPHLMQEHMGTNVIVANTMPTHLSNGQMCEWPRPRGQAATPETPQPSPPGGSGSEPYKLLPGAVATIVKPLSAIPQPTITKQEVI

Sequence | binding signal (log2 normalized intensity)
ACTGTTTGTGCAGAGGAGATCAGAGGAGGC | -0.727
AAGTTTAATCCTCTCACCCAAGATCAAAGA | 2.84
TCTGCTACTAACTGCATGACTTCAGAAAGT | -1.05
CGAAGAGCAGCCAGCTGCAGAGGAAGGACA | -1.06
GACGACTGTCTGCCATGGGCCTGGCTGAGC | -1.15
AAAGGATCAACTTTCAGAAGGGGACAAGCA | -1.13
GAAGGCTCCCAAGGTATCCTCCTAGAGTCC | -1.04
ACAAATTAGACAAGGTTTGTAACAAGTGCT | -1.07
ATACAAACAAATTGTGTGCAACAGGAGCCC | -1.13
AACTACAGTTGACCTTTGAACACCACAAGT | 7.56
GGCCTCCCCATCCTCATGACAGTACCTCTC | 2.32
CTCCTCCTCGTGAGTTGGAGACAGGAGAGG | -0.979
GCAGCTAGCTCCAGTTGGTTGCTAAGAGAC | -1.2
TCCCAAGCATGTTTGGTGACCCGTGACCCT | 5.07
GACCCTTCATAGCTTACTTGACAAATGGGG | 0.297
TAGATAGGAATCTGGATGGCTGAGCTGTAA | -0.513
AGTCAGTTTAGTCCTGGATGACCCAGATAG | 1.31
GGAATGTGACCTTAGACCCCTGAATAGGTC | 4.76
GATGGCTCTGCAGAGGCTTCCTCTTTGGTG | -0.631
TGTAAACATGTGAGGAAGGCTCTTTGTTCA | 0.558

Sequence | binding signal (log2 normalized intensity)
CAGCTCCTCTCCTCCATGGCCTGGGGCCCT | -0.986
CAAATTTATATCAGAGGAATGTCTGACCAA | 0.536
ACACACTCACGGACCCTGTTACCACACCAC | -0.182
CCGCCGCTAGGTGGCGGGCTGGCTCAGGAC | -1.05
ACCTTTGGTTAACTTCTTAACTTGGTTTCC | 0.54
GATCTTGAGGCCCACAAGGAATTTCCTTGT | -1.13
AAAAAAAAAAAAAAAAAGAACACAGTGTAG | -1.08
AAACAAACTCCCAGTCTGTTATCAGAGCTG | -1.14
TATCATGAGGTATATTCAACCCCCACTTCC | 4.26
GAATTCAACCCTTGTCACTTTCCCTTTGTC | 1.67
TCAAGCTAGGTAAGCACAGGTTTCTGTCCT | 0.0877
CTCTGCAAACATTTATTTTGTGTGCTAGAT | 1.54
GTATCTCTTCGCCTTGCTTATCTGGGAGGG | -0.214
TTATCAGCAGGACACCAAACAGACCTCCCC | 2.42
TGGTTACAAAGGTCACACTCCTGTGCAAAC | 3.88
CTAACAGCTGCAAGTGCCAACAAACTCAAT | -1.13
TACCACCAAAGAAAAAAGCCAATCTCTCAA | -1.13
ATTTTGGACTTTGTGCAAATGGAAAATTGT | 3.21
TAAGATTGAGAACTTTGACACCGAGGCATA | 1.5
GGCTTGTACCTTGACCTTCTCTGTTAACCC | 4.27
